From the supplement of paper PMC8728848
The other results are listed elsewhere or left out.

Experiments:
Experiment in all cases: glycan array binding signal (z-score within array); higher = stronger binding
Conditions in all cases: glycan notation: IUPAC condensed, linker removed
[1] = target: Neu5Gc(a2-8)Neu5Ac(a2-3)Gal(b1-4)GlcNAc
In short: (§1)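 Negative Z-scores can be read as non-binding. The Z-score is calculated within each array and then averaged across arrays of one protein sequence at different concentrations or buffers and across linkers. Arrays, 3228 in all, were curated from the Consortium for Functional Glycomics database and kept only where the protein sequence was available.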

[2] = target: Neu5Gc(a2-8)Neu5Gc(a2-3)Gal(b1-4)GlcNAc
In short: as §1

[3] = target: Neu5Gc(a2-8)Neu5Gc(a2-3)Gal(b1-4)GlcNAc(b1-3)Gal(b1-4)GlcNAc
In short: as §1

[4] = target: Neu5Gc(a2-8)Neu5Gc(a2-6)Gal(b1-4)GlcNAc
In short: as §1

[5] = target: Neu5Gc(b2-6)Gal(b1-4)GlcNAc
In short: as §1

[6] = target: Xyl(b1-2)[Man(a1-3)][Man(a1-6)]Man(b1-4)GlcNAc(b1-4)GlcNAc
In short: as §1

[7] = target: Xyl(b1-2)[Man(a1-3)][Man(a1-6)]Man(b1-4)GlcNAc(b1-4)[Fuc(a1-3)]GlcNAc
In short: as §1

B1: Banana lectin (Musa acuminata) (protein)
chain: MNGAIKVGAWGGNGGSAFDMGPAYRIISVKIFSGDVVDGVDVTFTYYGKTETRHYGGSGGTPHEIVLQEGEYLVGMAGEVANYHGAVVLGKLGFSTNKKAYGPFGNTGGTPFSLPIAAGKISGFFGRGGKFLDAIGVYLEPLEHHHHHH
[1]
  glycan array binding signal (z-score): -0.212
[2]
  glycan array binding signal (z-score): -0.22
[3]
  glycan array binding signal (z-score): -0.221
[4]
  glycan array binding signal (z-score): -0.219
[5]
  glycan array binding signal (z-score): -0.244
[6]
  glycan array binding signal (z-score): 0.942
[7]
  glycan array binding signal (z-score): 0.846
